Hit rate of the full screen: of about 320,000 compounds, about 7,600 (2.4%) were called active. Inconclusive means that the source gave no clear call. Such entries were picked first, then a sample of the others. Calls follow the shape of the dose curve; as a rule, active = well fitted activation curve with a large enough effect; inconclusive = small, poorly fitted or top-dose-only effect; inactive = no such curve, though single readings can be large or run the other way. Potencies of inconclusive entries are left out as doubtful fits.
Test: qHTS Assay for NPC1 Promoter Activators; also: nearly all actives have a fitted effect of over 60% in size;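 as to activation: reporter is driven by a mutant NPC1 promoter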
Conditions: Huh7 NPC1 promoter luciferase reporter, 24 h; series mostly up to 9.22 µM
How it was run: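 Quantitative HTS used a cell-based reporter: Huh7 cells stably bearing the NPC1 promoter upstream of luciferase were treated with compounds for 24 h, and promoter activation was read as luminescence.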
With `CC(=O)c1cccc(NC(=S)NC(=O)c2cccc(Cl)c2)c1` the Potency was inconclusive [activator, partial curve]. For `COC(=O)c1sc(NC(=S)NC(=O)c2ccccc2)nc1C`, the Potency was inconclusive [activator, single point]. In the case of `CCC1CCCCN1CCCNC(=O)c1ccc2nc(N3CCCCC3)sc2c1` (stereo unspecified), the Potency is reported as inconclusive [activator, full curve]. In the case of `COc1ccc(NC(=S)N/N=C/c2ccc(F)cc2)cc1OC`, the Potency is reported as inconclusive [activator, single point]. For `CCNC(=S)N(CCc1c(C)[nH]c2ccc(OC)cc12)Cc1cccnc1`, the Potency was inconclusive [activator, single point]. For `COC(=O)N/N=C\c1c(C)nn(-c2ccccc2)c1Cl`, the Potency was inconclusive [activator, single point]. In the case of `CCc1nnc(NC(=O)c2csc3c2CCC(C)C3)s1` (stereo unspecified), the Potency is reported as inconclusive [activator, partial curve]. With `CCc1ccc(CNc2ccc3c(c2)ncn3C(C)(C)C)cc1` the Potency was active: 3.16 µM. In the case of `O=C(NCc1cccnc1)c1cnc2n(c1=O)CCS2`, the Potency is reported as “inactive”. In the case of `CCc1ccc(NC(=O)Nc2cnccn2)cc1`, the Potency is reported as inconclusive [activator, partial curve]. With `COc1ccc(-n2nc3cc(N)c(Br)cc3n2)cc1` the Potency was inconclusive [activator, single point]. In the case of `O/N=C/c1ccc(OCc2ccccc2F)c(Cl)c1`, the Potency is reported as inconclusive [activator, partial curve]. With `O=C(/C=C/c1c(Cl)cccc1Cl)n1cccn1` the Potency was “inactive”. With `CC(=O)c1c(C)[nH]c(C(=O)OCc2nc3ccsc3c(=O)[nH]2)c1C` the Potency was inconclusive [activator, single point]. In the case of `Cc1ccc(C(=O)CSc2nnc(C3CC3)n2C2CC2)s1`, the Potency is reported as inconclusive [activator, partial curve]. For `Cc1nc2nc(-c3ccc(Cl)cc3)[nH]n2c(=O)c1Cc1ccccc1`, the Potency was inconclusive [activator, single point]. In the case of `COc1ccc(-c2csc(NC(=O)C3=COCCO3)n2)c(OC)c1`, the Potency is reported as inconclusive [activator, single point]. In the case of `O=C(CSc1nc2ccccc2n1S(=O)(=O)c1ccccc1)N1CCCCC1`, the Potency is reported as inconclusive [activator, single point]. With `O=C(c1cc2ccccc2oc1=O)N1CCOCC1` the Potency was inconclusive [activator, partial curve]. For `Cn1nc(C(F)(F)F)cc1-c1ccc(/C=C(\C#N)C(=O)c2ccccc2)s1`, the Potency was inconclusive [activator, partial curve]. In the case of `Cc1ccc(N=c2c([N+](=O)[O-])nn(-c3ccccc3)n2O)c(C)c1`, the Potency is reported as inconclusive [activator, full curve]. With `O=C(Nc1nn(Cc2ccc(Cl)cc2)cc1Br)c1ccc(COc2ccccc2Cl)o1` the Potency was “inactive”. With `CCOc1ccc(-n2nc3ccc(N)cc3n2)cc1` the Potency was inconclusive [activator, partial curve]. With `CCN(Cc1ccccc1)CC(O)COC(c1ccc(OC)cc1)c1ccc(OC)cc1` (stereo unspecified) the Potency was inconclusive [activator, single point]. With `CCOc1ccc(OCc2ccc(C(=O)O)o2)cc1` the Potency was inconclusive [activator, full curve]. With `COc1ccc(NS(=O)(=O)c2cccc(NC(=O)CCS(=O)(=O)c3ccccc3)c2)cc1` the Potency was “inactive”. With `CC(C)c1ncc(S(=O)(=O)c2ccc(C(F)(F)F)cn2)c(N)n1` the Potency was “inactive”. With `O=C(COC(=O)c1ccc(O)cc1O)NC(=O)NCc1ccccc1` the Potency was “inactive”. With `COc1cccc(OCC(=O)Nc2ccccc2C(N)=O)c1` the Potency was inconclusive [activator, single point]. With `O=C(Nc1ccccc1F)c1ccc(OCc2ccccc2)cc1` the Potency was inconclusive [activator, single point]. In the case of `C/C(=N\NC(=S)Nc1cccc(C)c1)c1ccccc1`, the Potency is reported as inconclusive [activator, single point]. In the case of `COc1ccccc1OCC(=O)Nc1cccc(-c2nc3ccccc3o2)c1`, the Potency is reported as “inactive”. With `COc1cc(Cl)cc(/C=C/c2ccc3ccccc3n2)c1OC(C)=O` the Potency was active: 2 µM. With `O=C(NCCNC(=O)c1ccccc1Br)c1ccccc1Br` the Potency was “inactive”. For `COc1ccc(NC(=O)C2C3CC/C=C\CCC32)cc1` (stereo unspecified), the Potency was inconclusive [activator, partial curve]. In the case of `COc1ccc2nc(-c3cccc(N)c3)[nH]c2c1`, the Potency is reported as active: 1.58 µM. In the case of `COc1ccc(N(C)C(=O)C2CCN(S(=O)(=O)c3cccc4nonc34)CC2)c(OC)c1`, the Potency is reported as “inactive”. In the case of `CC(=O)c1cnc2nc(SCc3ccccc3C)nn2c1C`, the Potency is reported as inconclusive [activator, partial curve]. In the case of `Cc1ccccc1C(=O)NNC(=O)C1CCN(C(=O)Nc2ccccc2)CC1`, the Potency is reported as “inactive”. With `CCC(=O)Nc1cc(C(=O)OCC(=O)c2ccccc2Cl)ccc1C` the Potency was inconclusive [activator, partial curve]. For `COc1cc(OC)cc(C(=O)/C=C2\Sc3ccccc3N2C)c1`, the Potency was inconclusive [activator, partial curve]. In the case of `Oc1ccc(Br)cc1/C=N/N1CCCCC1`, the Potency is reported as inconclusive [activator, single point]. In the case of `Cc1ccnc2nc(C(=O)Nc3nc4ccccc4s3)nn12`, the Potency is reported as active: 1 µM. In the case of `CCCCOCCCNC(=O)COc1ccccc1`, the Potency is reported as “inactive”. In the case of `O=C(/C=C/c1ccc(O)cc1)c1ccc(O)cc1O`, the Potency is reported as “inactive”. For `O=C(NC1CCCCCCC1)c1cc(F)c(F)cc1Cl`, the Potency was inconclusive [activator, partial curve]. In the case of `O=C(NNC(=O)c1ccccc1OCc1ccccc1)c1ccccc1F`, the Potency is reported as inconclusive [activator, partial curve]. In the case of `Cc1cc(NC(=O)c2n[nH]c(=O)c3ccccc23)ccc1Br`, the Potency is reported as inconclusive [activator, partial curve]. With `Cc1ccccc1C(=O)O/N=C(\N)c1ccncc1` the Potency was inconclusive [activator, partial curve]. For `Cc1ccc(Nc2nc(-c3sc(NC(=O)c4ccco4)nc3C)cs2)cc1`, the Potency was “inactive”. For `CCCC(=O)Nc1ccc(N2CCCCC2)cc1`, the Potency was inconclusive [activator, partial curve]. In the case of `CC(=O)Oc1ccc2cc(-c3ccccc3)c(=O)oc2c1`, the Potency is reported as active: 3.98 µM. In the case of `CCOc1ccc2c(c1)S/C(=C\c1cccs1)C(=O)N2`, the Potency is reported as inconclusive [activator, partial curve]. With `COCCC(=O)N1CCC(Oc2ccc(C(=O)N3CCC(N(C)C)C3)cc2)CC1` (stereo unspecified) the Potency was “inactive”. For `COc1ccc(-c2cc(-c3cc(C)ccc3O)[nH]n2)cc1`, the Potency was “inactive”. For `O=C(COc1ccc(NC(=O)c2ccccc2)cc1)c1ccccc1`, the Potency was inconclusive [activator, single point]. For `CCCC(=O)Nc1ccc(NC(=O)c2cccc(OC)c2)nc1`, the Potency was inconclusive [activator, partial curve]. In the case of `O=C(Nc1nnc(SCC(=O)N2CCCCC2)s1)c1ccccc1F`, the Potency is reported as “inactive”. With `C/C(=N\Nc1ccc(C(=O)O)cc1)c1ccc2c(c1)Nc1ccccc1S2` the Potency was inconclusive [activator, partial curve]. With `CC(=O)c1ccccc1NC(=O)c1ccc2c(c1)NC(=O)C(C)S2` (stereo unspecified) the Potency was inconclusive [activator, partial curve]. With `CCn1cnc2c(Nc3cccc(Cl)c3)nc(C#N)nc21` the Potency was inconclusive [activator, single point]. For `O=C(NC1CCCC1)c1cc(-c2ccc(Cl)cc2)on1`, the Potency was active: 1.41 µM. In the case of `c1ccc(-n2cnc3cc(NCc4ccccn4)ccc32)cc1`, the Potency is reported as inconclusive [activator, partial curve]. In the case of `COC(=O)c1oc2ccccc2c1NC(=O)/C=C/C(=O)O`, the Potency is reported as “inactive”. For `C[n+]1c(/C=C/c2ccc3c(c2)OCO3)ccc2ccccc21`, the Potency was “inactive”. In the case of `O=C(N/C=C/c1ccco1)OCc1ccccc1`, the Potency is reported as inconclusive [activator, partial curve]. For `COc1ccc(Br)cc1-c1noc(-c2ccccc2)n1`, the Potency was inconclusive [activator, single point]. In the case of `COc1ccc(-c2nc(-c3ccc(Br)o3)no2)cc1OC`, the Potency is reported as inconclusive [activator, single point]. With `CC1(C)Cc2nc3sc(C(=O)NCCCO)c(N)c3cc2CS1` the Potency was inconclusive [activator, partial curve]. With `CCCN(CC1CCCO1)C(=O)c1cc(COc2cccc(OC)c2)on1` (stereo unspecified) the Potency was inconclusive [activator, single point]. In the case of `CCN1CCN(C(=O)NS(=O)(=O)c2ccc(C)cc2)CC1`, the Potency is reported as “inactive”. For `O=C(CSCc1ccco1)c1cccs1`, the Potency was active: 3.98 µM. With `CC(=O)c1c(C)[nH]c(C(=O)NCCc2ccccc2)c1C` the Potency was active: 2.51 µM. For `Cc1ccccc1-c1nnc(-c2ccccc2)o1`, the Potency was inconclusive [activator, partial curve]. In the case of `COc1cccc(NC(=O)c2cccc(OC)c2OC)c1`, the Potency is reported as inconclusive [activator, partial curve]. For `COc1ccc(-c2csc(N(C)C(=O)c3cccs3)n2)cc1`, the Potency was inconclusive [activator, partial curve].

— PubChem BioAssay AID485313 (National Center for Advancing Translational Sciences (NCATS), 2010)
Potency is read from the fitted curve at half-maximal effect; tags tell the direction and shape of the fitted curve.
